In all, about 33,000 sequences were measured (“E-score (-0.5 to 0.5)”: median about -0.032, highest 2% from about 0.36 on). The list shows a part of the results.
target: T1, Sko1 (UniProt Q02100); assay: PBM E-score (8-mer binding enrichment) (E-score (-0.5 to 0.5)); higher = stronger / more preferred TF binding; most listed sequences are background and not binding sites; settings: protein concentration: 200 nM; construct: GST-full length
T1 sequence: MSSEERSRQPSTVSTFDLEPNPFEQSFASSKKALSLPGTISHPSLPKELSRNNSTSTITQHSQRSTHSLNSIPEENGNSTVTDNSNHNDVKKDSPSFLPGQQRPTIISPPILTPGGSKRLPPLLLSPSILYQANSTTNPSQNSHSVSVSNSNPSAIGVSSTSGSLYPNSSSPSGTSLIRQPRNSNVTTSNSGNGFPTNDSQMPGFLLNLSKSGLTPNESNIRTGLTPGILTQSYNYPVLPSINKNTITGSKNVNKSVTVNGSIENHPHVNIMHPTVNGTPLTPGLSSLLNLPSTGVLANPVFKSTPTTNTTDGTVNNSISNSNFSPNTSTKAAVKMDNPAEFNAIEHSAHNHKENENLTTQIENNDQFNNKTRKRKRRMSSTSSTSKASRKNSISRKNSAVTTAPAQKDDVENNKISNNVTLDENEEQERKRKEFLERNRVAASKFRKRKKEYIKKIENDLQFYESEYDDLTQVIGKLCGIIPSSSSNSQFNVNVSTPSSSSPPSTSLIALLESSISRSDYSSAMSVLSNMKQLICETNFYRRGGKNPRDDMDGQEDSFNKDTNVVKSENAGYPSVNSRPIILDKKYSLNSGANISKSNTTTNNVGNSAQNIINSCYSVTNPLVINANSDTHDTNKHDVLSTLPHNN
Procedure, shortened: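 E-scores (a modified Wilcoxon-Mann-Whitney statistic) were assigned by the Universal PBM Analysis Suite to every ungapped eight-base word pooled with its reverse complement. The input came from universal all-10-mer Agilent arrays made double-stranded by primer extension and probed with GST-tagged yeast transcription factors at about 100-200 nM. Fluorescent anti-GST detected bound protein, and masliner normalised the scans.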

Row | Sequence | PBM E-score
1 | CCTACACC | -0.107
2 | GCCTTAGA | -0.149
3 | CATATGGA | 0.0284
4 | CGCCTATA | -0.0472
5 | GAGCCGAC | -0.226
6 | CTGAGAAG | -0.202
7 | ATTGCCCA | -0.0532
8 | ACTAACCC | -0.037
9 | GACGGAGA | -0.0785
10 | AGTCATCG | 0.103
11 | TCGTGTAA | 0.116
12 | AGATTCCT | -0.285
13 | GCCTATAC | -0.102
14 | GCATCTGA | -0.13
15 | AAACGATT | 0.119
16 | CAGCGAGG | -0.233
17 | CAAGTAAG | -0.0448
18 | ACGAACCA | 0.179
19 | CCATTTGC | -0.103
20 | CGGCAGAA | -0.264
21 | GGTCACGA | -0.0631
22 | TGGAACCA | -0.151

Row | Sequence | PBM E-score
23 | CAAGGTGA | 0.0696
24 | ATAACCGA | -0.132
25 | GCAGTGCC | -0.263
26 | ATATGTCA | 0.339
27 | ATGCGTAC | 0.291
28 | TCACAAGA | -0.00762
29 | CGCCGAAC | -0.027
30 | GTTTGCGA | 0.166
31 | CGCAGCCA | -0.106
32 | ATAGCCAT | 0.0219
33 | AGTTGGGA | -0.165
34 | GAGTGAGA | -0.164
35 | ATAGCTCG | 0.12
36 | CTACCAGA | -0.0506
37 | ACGACACA | 0.205
38 | ATTCGACC | -0.233
39 | CGCGTTCC | -0.0612
40 | TGTAATAA | 0.28
41 | CTGATGAA | 0.175
42 | AACCTGTC | -0.164
43 | AATCATCA | 0.201
44 | ACAGCAGG | -0.153

Row | Sequence | PBM E-score
45 | CATGGAAA | 0.163
46 | GAGTGGGA | -0.192
47 | CCCATTAA | -0.186
48 | CCACGCGG | -0.124
49 | GAAGCATA | -0.0185
50 | GCTATTTA | 0.0704
51 | ATGACGGA | 0.419
52 | ACGCACTG | 0.177
53 | AAAAGACA | 0.183
54 | CTGTTTAC | 0.26
55 | ACTCTGCC | -0.101
56 | ACCGAGAA | -0.00331
57 | CTCCTAAC | -0.0207
58 | AATTCATA | 0.161
59 | CCAGTTAA | 0.101
60 | CCATAGAC | -0.0864
61 | GTTATCCA | -0.0027
62 | AACGTAGG | 0.336
63 | GACCGTCC | -0.304
64 | AACACGTA | 0.459
65 | CAAAGCTC | -0.218
66 | CCAAACAG | -0.258

Row | Sequence | PBM E-score
67 | GAGTAGAC | 0.00979
68 | GAGCGCTA | -0.0474
69 | GCCAGGAA | 0.0363
70 | AGTGACAT | 0.361
71 | GACGCAAA | 0.347
72 | GCTGACTA | -0.121
73 | ACTATGCA | -0.00194
74 | TAGCTTAA | 0.135
75 | TAATATAA | 0.253
76 | GAAGCGCC | -0.101
77 | CTGATCGC | -0.0786
78 | ATGCGGTC | -0.027
79 | AATGAGTG | 0.124
80 | ATCACTAA | 0.137
81 | CCCGCCCC | 0.0628
82 | CCATGCGA | -0.0229
83 | AAGAATCC | -0.148
84 | CCTGCTAG | -0.334
85 | AAGGATGC | 0.0452
86 | ACATCTCG | -0.0543
87 | AGGCATTC | -0.267
88 | GAGTACCA | 0.0559

Row | Sequence | PBM E-score
89 | AAACACCT | 0.139
90 | TATCGTGA | 0.168
91 | AGGTGTAC | 0.0338
92 | AGTTCCAT | 0.0951
93 | AAGATGTG | -0.0256
94 | GGACTACC | -0.16
95 | ACGCCCAC | 0.0779
96 | GGCGTCTA | -0.0406
97 | TTAGACAA | 0.166
98 | GGTTGTGA | 0.153
99 | GCGCTGAA | -0.216
100 | ATGACCTG | 0.0736
101 | AAGAAAAA | 0.123
102 | TCCAAAGA | 0.00453
103 | CTACTGAG | -0.124
104 | CCTCAATA | -0.0994
105 | ATTACTGA | 0.241
106 | ACGCACCG | 0.25
107 | CGTTGCGA | 0.0733
108 | GATGGATA | -0.138
109 | TAAGGCGA | -0.0493
110 | ACCTTACT | 0.136

— the supplement of paper PMC3334620
